{"source": "the supplement of paper PMC8728848", "assay_in_all_cases": "glycan array binding signal (z-score within array); higher = stronger binding", "settings_in_all_cases": "glycan notation: IUPAC condensed, linker removed", "key": {"[1]": {"biological_target": "Neu5Ac(a2-6)Gal(b1-4)GlcNAc(b1-2)Man(a1-3)[Gal(b1-4)GlcNAc(b1-2)Man(a1-6)]Man(b1-4)GlcNAc(b1-4)GlcNAc", "in_short": "(§1)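 Glycan array data came from 3228 arrays in the Consortium for Functional Glycomics database, and only arrays with an available protein sequence were kept. Glycan names were put into IUPAC-condensed notation, and columns mapping to the same glycan were averaged. The binding signal is a within-array Z-score, averaged across arrays of one protein sequence run at different concentrations or buffers and across linkers. A negative Z-score can be read as non-binding.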"}, "[2]": {"biological_target": "Neu5Ac(a2-6)Gal(b1-4)GlcNAc(b1-2)Man(a1-3)[GlcNAc(b1-2)Man(a1-6)]Man(b1-4)GlcNAc(b1-4)GlcNAc", "in_short": "as §1"}, "[3]": {"biological_target": "Neu5Ac(a2-6)Gal(b1-4)GlcNAc(b1-2)Man(a1-3)[GlcNAc(b1-2)Man(b1-4)GlcNAc(b1-2)Man(a1-6)]Man(b1-4)GlcNAc(b1-4)GlcNAc", "in_short": "as §1"}, "[4]": {"biological_target": "Neu5Ac(a2-6)Gal(b1-4)GlcNAc(b1-2)Man(a1-3)[Neu5Ac(a2-6)Gal(b1-4)GlcNAc(b1-2)Man(a1-6)]Man(b1-4)GlcNAc(b1-4)GlcNAc", "in_short": "as §1"}, "[5]": {"biological_target": "Neu5Ac(a2-6)Gal(b1-4)GlcNAc(b1-2)Man(a1-6)[Gal(b1-4)GlcNAc(b1-2)Man(a1-3)]Man(b1-4)GlcNAc(b1-4)GlcNAc", "in_short": "as §1"}, "[6]": {"biological_target": "Neu5Ac(a2-6)Gal(b1-4)GlcNAc(b1-2)Man(a1-6)[GlcNAc(b1-2)Man(a1-3)]Man(b1-4)GlcNAc(b1-4)GlcNAc", "in_short": "as §1"}, "[7]": {"biological_target": "Neu5Ac(a2-6)Gal(b1-4)GlcNAc(b1-3)Gal(b1-4)GlcNAc", "in_short": "as §1"}, "[8]": {"biological_target": "Neu5Ac(a2-6)Gal(b1-4)GlcNAc(b1-3)Gal(b1-4)[Fuc(a1-3)]GlcNAc(b1-3)Gal(b1-4)[Fuc(a1-3)]GlcNAc", "in_short": "as §1"}, "[9]": {"biological_target": "Neu5Ac(a2-6)Gal(b1-4)GlcNAc6S", "in_short": "as §1"}, "Neu5Ac(a2-6)GalNAc": {"biological_target": "Neu5Ac(a2-6)GalNAc", "in_short": "as §1"}, "[10]": {"biological_target": "Neu5Ac(a2-6)GalNAc(b1-4)GlcNAc", "in_short": "as §1"}, "Neu5Ac(a2-8)Neu5Ac": {"biological_target": "Neu5Ac(a2-8)Neu5Ac", "in_short": "as §1"}, "[11]": {"biological_target": "Neu5Ac(a2-8)Neu5Ac(a2-3)Gal(b1-4)Glc", "in_short": "as §1"}, "[12]": {"biological_target": "Neu5Ac(a2-8)Neu5Ac(a2-3)[GalNAc(b1-4)]Gal(b1-4)Glc", "in_short": "as §1"}, "[13]": {"biological_target": "Neu5Ac(a2-8)Neu5Ac(a2-8)Neu5Ac", "in_short": "as §1"}, "[14]": {"biological_target": "Neu5Ac(a2-8)Neu5Ac(a2-8)Neu5Ac(a2-3)Gal(b1-4)Glc", "in_short": "as §1"}, "[15]": {"biological_target": "Neu5Ac(a2-8)Neu5Ac(a2-8)Neu5Ac(a2-3)[GalNAc(b1-4)]Gal(b1-4)Glc", "in_short": "as §1"}, "[16]": {"biological_target": "Neu5Ac(a2-8)Neu5Ac(a2-8)Neu5Ac(a2-8)Neu5Ac(a2-3)[GalNAc(b1-4)]Gal(b1-4)Glc", "in_short": "as §1"}, "[17]": {"biological_target": "Neu5Ac(b2-6)Gal(b1-4)GlcNAc", "in_short": "as §1"}, "Neu5Ac(b2-6)GalNAc": {"biological_target": "Neu5Ac(b2-6)GalNAc", "in_short": "as §1"}, "[18]": {"biological_target": "Neu5Ac9Ac(a2-6)Gal(b1-4)GlcNAc", "in_short": "as §1"}, "[19]": {"biological_target": "Neu5Gc(a2-3)Gal(b1-3)GlcNAc", "in_short": "as §1"}, "[20]": {"biological_target": "Neu5Gc(a2-3)Gal(b1-3)[Fuc(a1-4)]GlcNAc", "in_short": "as §1"}, "Neu5Gc(a2-3)Gal(b1-4)Glc": {"biological_target": "Neu5Gc(a2-3)Gal(b1-4)Glc", "in_short": "as §1"}, "[21]": {"biological_target": "Neu5Gc(a2-3)Gal(b1-4)GlcNAc", "in_short": "as §1"}, "[22]": {"biological_target": "Neu5Gc(a2-3)Gal(b1-4)[Fuc(a1-3)]GlcNAc", "in_short": "as §1"}, "[23]": {"biological_target": "Neu5Gc(a2-6)Gal(b1-4)GlcNAc", "in_short": "as §1"}, "Neu5Gc(a2-6)GalNAc": {"biological_target": "Neu5Gc(a2-6)GalNAc", "in_short": "as §1"}, "[24]": {"biological_target": "Neu5Gc(b2-6)Gal(b1-4)GlcNAc", "in_short": "as §1"}}, "note": "This is one part of the list."}
{"binder": "NESD (Drosophila melanogaster), NP_610025.1 (protein) MGHHHHHHSSGVDLGTENLYFQSMMEVFTFEKSYLERLKEAEAVLSWEGAVMPASQVRSEWKSYVELKIEPAGWQAIWKIPRVICEDLKLRYPTIVYGYVEQVIFDELKAVFVVTAVQDSDVHLPESNEVSLVELWPTVQQENAALNVDTTAECIDRLRFFYTHVWMPWDKDYDDDRDWVQQHLQARIQLVCDLSKNRLPRPLALHMRTLLAEAKYIQQRLDYLELDLSDAESDDEAVELNDSVAEPARKQSKAGSANGCLNVSSLPVTDLMCLHLRMAIIRSEFEILENPEMRRAYSELQSNSLKRLRCSSGRTRQSEDLLVERNSISHVVTLPGKLQQQLELLKLAQTLVKPESKVQLSNTLQDVLSICQSNDDILLSPGEHTIKFLEHLNDNGSLRGLTQPEAILSPAADLSLLPVVCSSDEDSTLLVIDGDYTLSELVLDCRHVRRGILLRNGTLTMRGCRLLGDGSSSTQEGIVCMPGASVELKSCLIENFAVGVSMRPKSSAELGSVQFKTCKTGLELLEKSASVNLQGSKCSFENCALGILADGFVLGEQRTEKVLVLNKFSELQRYNEDNLLGNCSFYNCKKNVRVFNESGQLLAQRSHQQLLEDELGGENKENIQLV", "values": [{"measurement": "glycan array binding signal (z-score)", "setting": "[1]", "result": 0.256}, {"measurement": "glycan array binding signal (z-score)", "setting": "[2]", "result": -0.23}, {"measurement": "glycan array binding signal (z-score)", "setting": "[3]", "result": -0.094}, {"measurement": "glycan array binding signal (z-score)", "setting": "[4]", "result": -0.177}, {"measurement": "glycan array binding signal (z-score)", "setting": "[5]", "result": -0.271}, {"measurement": "glycan array binding signal (z-score)", "setting": "[6]", "result": -0.447}, {"measurement": "glycan array binding signal (z-score)", "setting": "[7]", "result": -0.075}, {"measurement": "glycan array binding signal (z-score)", "setting": "[8]", "result": 0.384}, {"measurement": "glycan array binding signal (z-score)", "setting": "[9]", "result": 0.162}, {"measurement": "glycan array binding signal (z-score)", "setting": "Neu5Ac(a2-6)GalNAc", "result": -0.34}, {"measurement": "glycan array binding signal (z-score)", "setting": "[10]", "result": 0.166}, {"measurement": "glycan array binding signal (z-score)", "setting": "Neu5Ac(a2-8)Neu5Ac", "result": 0.138}, {"measurement": "glycan array binding signal (z-score)", "setting": "[11]", "result": -0.619}, {"measurement": "glycan array binding signal (z-score)", "setting": "[12]", "result": -0.257}, {"measurement": "glycan array binding signal (z-score)", "setting": "[13]", "result": -0.204}, {"measurement": "glycan array binding signal (z-score)", "setting": "[14]", "result": -0.196}, {"measurement": "glycan array binding signal (z-score)", "setting": "[15]", "result": 0.063}, {"measurement": "glycan array binding signal (z-score)", "setting": "[16]", "result": -0.199}, {"measurement": "glycan array binding signal (z-score)", "setting": "[17]", "result": -0.286}, {"measurement": "glycan array binding signal (z-score)", "setting": "Neu5Ac(b2-6)GalNAc", "result": -0.401}, {"measurement": "glycan array binding signal (z-score)", "setting": "[18]", "result": -0.403}, {"measurement": "glycan array binding signal (z-score)", "setting": "[19]", "result": -0.276}, {"measurement": "glycan array binding signal (z-score)", "setting": "[20]", "result": -0.219}, {"measurement": "glycan array binding signal (z-score)", "setting": "Neu5Gc(a2-3)Gal(b1-4)Glc", "result": -0.037}, {"measurement": "glycan array binding signal (z-score)", "setting": "[21]", "result": -0.221}, {"measurement": "glycan array binding signal (z-score)", "setting": "[22]", "result": 0.166}, {"measurement": "glycan array binding signal (z-score)", "setting": "[23]", "result": -0.592}, {"measurement": "glycan array binding signal (z-score)", "setting": "Neu5Gc(a2-6)GalNAc", "result": -0.265}, {"measurement": "glycan array binding signal (z-score)", "setting": "[24]", "result": -0.247}]}
